Here are results for 12 compounds from the antibiotic and cytotoxicity screens of Wong et al. (2023).

The structures appear in SMILES notation. The list shows a part of the results.

This experiment deals with HepG2. The experiment can be described thus: cytotoxicity call (relative viability < 0.9). To be noted: 10 µM.
As to `CC(=O)OCC(=O)C1(O)CCC2C3CCC4=CC(=O)CCC4(C)C3(F)C(O)CC21C` (configuration not stated), the cytotoxicity call is “inactive”.

With `CCOC(=O)c1cc2c(c(-c3cccc(Br)c3)n1)[C@@H](CCOC)N([S@](=O)C(C)(C)C)C2`, the cytotoxicity call is “inactive”.

For the compound `COc1ccc(NC(=O)Nc2ccc3c(c2)C(=O)N([C@@H](C)CO)C[C@@H](C)[C@H](CN(C)Cc2ccc(C(F)(F)F)cc2)O3)cc1`, the cytotoxicity call is “inactive”.

For `Cc1noc(C)c1S(=O)(=O)Nc1ccc2c(c1)C(=O)N([C@@H](C)CO)C[C@H](C)[C@H](CN(C)S(C)(=O)=O)OCCCC[C@@H](C)O2`, the cytotoxicity call is “inactive”.

Take `CC(C)NC(=O)N[C@@H]1C=C[C@@H](CC(=O)NCCN2CCCC2)O[C@@H]1CO`: the cytotoxicity call was “inactive”.

Turning to `O=C(N[C@H]1CC[C@@H](CCn2cc(C3(O)CCCC3)nn2)O[C@H]1CO)C1CCOCC1`, the cytotoxicity call was “inactive”.

On to `CO[C@H]1CN(C)C(=O)c2ccc(NS(=O)(=O)CC(F)(F)F)cc2OC[C@@H](C)N(Cc2nccs2)C[C@@H]1C`, for which the cytotoxicity call is “inactive”.

For `C[C@@H]1CN([C@H](C)CO)C(=O)c2cc(NC(=O)Nc3cccc4ccccc34)ccc2O[C@@H](C)CCCCO[C@H]1CN(C)Cc1ccncc1`, the cytotoxicity call was “inactive”.

Regarding `C[C@@H]1CCCCO[C@@H](CN(C)CC2CC2)[C@@H](C)CN([C@H](C)CO)C(=O)c2cc(NC(=O)Cc3ccccc3)ccc2O1`, the cytotoxicity call is “inactive”.

For the compound `C[C@@H]1CN([C@@H](C)CO)S(=O)(=O)c2ccc(C#CC(C)(C)O)cc2O[C@@H]1CN(C)C(=O)C1CCCCC1`, the cytotoxicity call was “inactive”.

As to `Cc1noc(C)c1S(=O)(=O)Nc1ccc2c(c1)CC(=O)N([C@H](C)CO)C[C@H](C)[C@@H](CN(C)C(=O)NC(C)C)O2`, the cytotoxicity call is “inactive”.

As for `C[C@@H]1CN([C@H](C)CO)C(=O)c2cc(NC(=O)Nc3ccc4c(c3)OCO4)ccc2O[C@H]1CN(C)Cc1ccc(Cl)c(Cl)c1`, the cytotoxicity call is “inactive”.
